# Reference: PMC6919601, “Identification of Plasmodium dipeptidyl aminopeptidase allosteric inhibitors by high throughput screening” (PLoS ONE, 2019)
# About 230 (0.21%) of roughly 110,000 compounds showed an effect of 50% or more. This is one part of the list.
# Target: DPAP1 (Plasmodium falciparum, UniProt Q8IIJ9)
# Test: primary screen, percent inhibition; read by cleavage of a fluorogenic dipeptide substrate; higher = more effect of the substance
# Parameters: species or system P. falciparum D10 trophozoite lysates; single well
# 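Further: 30 min substrate incubation versus DMSO and 10 µM JCP410 controls.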
# Chain of DPAP1 (Q8IIJ9 whole entry, looked up): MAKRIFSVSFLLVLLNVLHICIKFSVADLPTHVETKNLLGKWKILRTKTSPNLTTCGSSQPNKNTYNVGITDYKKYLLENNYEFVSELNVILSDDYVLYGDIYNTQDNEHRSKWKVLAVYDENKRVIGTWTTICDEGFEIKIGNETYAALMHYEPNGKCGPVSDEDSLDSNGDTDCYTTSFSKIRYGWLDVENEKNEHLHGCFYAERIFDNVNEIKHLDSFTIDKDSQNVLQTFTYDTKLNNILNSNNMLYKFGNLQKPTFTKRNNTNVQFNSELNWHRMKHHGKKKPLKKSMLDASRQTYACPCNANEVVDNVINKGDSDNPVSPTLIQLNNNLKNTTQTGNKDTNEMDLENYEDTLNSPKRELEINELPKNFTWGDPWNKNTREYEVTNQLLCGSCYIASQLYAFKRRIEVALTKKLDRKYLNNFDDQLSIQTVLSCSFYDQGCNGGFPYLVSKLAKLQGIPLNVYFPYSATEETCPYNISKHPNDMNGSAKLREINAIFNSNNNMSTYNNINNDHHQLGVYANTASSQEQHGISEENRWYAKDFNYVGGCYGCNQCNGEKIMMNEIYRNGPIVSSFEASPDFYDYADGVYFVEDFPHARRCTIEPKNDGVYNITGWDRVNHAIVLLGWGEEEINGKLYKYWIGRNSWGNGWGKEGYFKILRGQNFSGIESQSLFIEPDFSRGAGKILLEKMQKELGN
row,SMILES,% Inhibition @ 10 uM
1,Cc1cc2c(n1-c1ccc(C(=O)N3CCN(C)CC3)cc1)CCC(C)C2 (centres unmarked),-3.05%
2,Cn1c2ccccc2c2nc3ccccc3nc21,1.41%
3,O=C(c1ccc(C2SCC(=O)N2CCc2ccccc2)cc1)N1CCc2ccccc2C1 (centres unmarked),8.44%
4,OC1(c2ccccc2)CCNC2CCCCC21 (centres unmarked),2.69%
5,CN1CCN(c2c(N)c(=O)oc3ccccc23)CC1,1.9%
6,COc1ccccc1/C=C/c1nn2c(COc3ccccc3)nnc2s1,20.6%
7,C=CCCC(C)(O)C#CCN1CCOCC1 (centres unmarked),-2.51%
8,CNC(=O)c1ccc2c(c1)c(C)c(C)n2Cc1cccc(C)c1,-1.37%
9,O=C1C(Cl)=C(Nc2ccccc2)C(=O)N1Cc1ccccc1,-0.305%
10,Cn1c(C(=O)N2CCOCC2)cc2sc(Cl)cc21,-6.68%
11,Clc1ccc(Nc2nc(-c3ccc(-c4ccccc4)cc3)cs2)cc1,-7.99%
12,Cc1sc2ncnc(SCC(=O)Nc3nc(-c4ccccc4)ns3)c2c1C,3%
13,CCN(CC)CCN(C(=O)c1ccco1)c1nc2ccc(C)cc2s1,0.233%
14,COc1cccc(C2=NOC(C(=O)NCc3ccccc3)C2)c1OC (centres unmarked),2.85%
15,CCc1ccc(C2C(C#N)=C(C)N=C3CC(c4ccc(Cl)cc4)CC(O)=C32)cc1 (centres unmarked),-2.2%
16,CCCOc1ccc(-c2nc3s/c(=C\c4ccccc4)c(=O)n3n2)cc1,5.37%
17,COc1ccc(OC)c(-c2cc(C(=O)NCc3cccnc3)no2)c1,-2.47%
18,O=C(CSc1n[nH]c2ncnn12)Nc1ccccn1,-5.36%
19,CCOC(=O)N1CCN(c2c(NC(C)(C)C)c(=O)c2=O)CC1,0.277%
20,Cc1c2cnn(CC(=O)NC(C)c3ccccc3)c(=O)c2c(C)n1Cc1ccccc1F (centres unmarked),2.84%
21,CS(=O)(=O)N1CCCC(C(=O)NCCc2ccc(Cl)cc2)C1 (centres unmarked),-4.83%
22,C=C(C)c1ccccc1NC(=O)CCN1C(=O)c2ccccc2S1(=O)=O,-17%
23,O=C(CC1Sc2ccccc2NC1=O)NCc1ccco1 (centres unmarked),-7.17%
24,CN1CCC(c2ccc3c(c2)SCc2ccccc2C3=O)CC1,-3.04%
25,OCCN1CCN(Cc2ccc(Cl)cc2Cl)CC1,1.83%
26,Cc1cccc(NC(=O)c2cccc(C(=O)Nc3cccc(C)c3)c2)c1,3.85%
27,Cc1ccc(CS(=O)(=O)c2ncc(Cl)c(C(=O)Nc3nnc(C)s3)n2)cc1,4%
28,Cc1ccc(S(=O)(=O)N(C)c2ccc(C(=O)N(C)C)cc2)cc1,2.22%
29,S=C1NCCN1CCOc1ccccc1,-4.74%
